Measurements: publication PMC5892938
The other results are listed elsewhere or left out. At the low end of the ranking the order means little.
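Note: DESeq read counts versus GST-SBP nonspecific binding control pulldown.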

The sequences below were run against GST-SBP-SLBP (stem-loop binding protein) (UniProt Q14493) (assay: targeted RNA Bind-n-Seq). Settings: RBNS binding buffer: 25 mM Tris pH 7.5, 150 mM KCl, 3 mM MgCl2, 0.1% Tween, 0.5 mg/mL BSA, 1 mM DTT; 27 nM protein, 750 pM RNA pool; temperature not stated; high values mean tight binding.
Work on “GGUCACGUCUCAAUCAACUCUAUUUCCAGGGAAAGCCCUGGCAUAUUCAACAGCUCGCAGUCAAG” yielded a binding signal (log2 fold change) of 0.1. “GGUCACGUCUCAAUCAACUCUUCUUCCAGGGAAAUCCCUGGCGUUUUCAACAGCUCGCAGUCAAG” showed a binding signal (log2 fold change) of -0.0645. “GGUCACGUCUCAAUCAACUCUUUCGCAGGAGUUUACUCCUGGUUAUUCAACAGCUCGCAGUCAAG” showed a binding signal (log2 fold change) of -0.173. With “GGUCACGUCUCAAUCAACUCAAGUCCCAGGGAAAACCCUGGCUAAUUCAACAGCUCGCAGUCAAG” the binding signal (log2 fold change) was 0.127. “GGUCACGUCUCAAUCAACUCUCACGAGGGGGGGAAAACCCCUUUACCCUCAACUUCAACAGCUCGCAGUCAAG” was tested, and the binding signal (log2 fold change) was 0.363. “GGUCACGUCUCAAUCAACUCAUUCCCAGGAGUUUUCUCCUGUAAUUUCAACAGCUCGCAGUCAAG” gave a binding signal (log2 fold change) of 0.0677. Work on “GGUCACGUCUCAAUCAACUCAUCUUCCAGGGAAAUCCCUGGUUUACUCAACAGCUCGCAGUCAAG” yielded a binding signal (log2 fold change) of -0.0538. In the case of “GGUCACGUCUCAAUCAACUCACUAGAGGGGGGGAAAACCCCUUUACCCUCAACCUCAACAGCUCGCAGUCAAG”, the binding signal (log2 fold change) is reported as 0.103. “GGUCACGUCUCAAUCAACUCCUCAGAGGGGGGGAAAACCCCUUUACCCUCGUUCUCAACAGCUCGCAGUCAAG” was tested, and the binding signal (log2 fold change) was -0.283. In the case of “GGUCACGUCUCAAUCAACUCAUCUUCAGGAGUUUUCUCCUGCUAUUUCAACAGCUCGCAGUCAAG”, the binding signal (log2 fold change) is reported as 0.0467. “GGUCACGUCUCAAUCAACUCUUUUUCAGGAGUUUUCUCCUGUUAUUUCAACAGCUCGCAGUCAAG” showed a binding signal (log2 fold change) of -0.167. “GGUCACGUCUCAAUCAACUCAACUCCCAGGGAAAGCCCUGGUUUAUUCAACAGCUCGCAGUCAAG” was tested, and the binding signal (log2 fold change) was 0.0251. “GGUCACGUCUCAAUCAACUCUAUCGAGGGGGGGAAAACCCCUUUACCCUCACCAUCAACAGCUCGCAGUCAAG” showed a binding signal (log2 fold change) of -0.0576. For “GGUCACGUCUCAAUCAACUCAACUCCAGGAGUUUUCUCCUGCUUACUCAACAGCUCGCAGUCAAG”, the binding signal (log2 fold change) was -0.118. For “GGUCACGUCUCAAUCAACUCAAUUCCCAGGGAAAACCCUGGCAUUCUCAACAGCUCGCAGUCAAG”, the binding signal (log2 fold change) was 0.249. In the case of “GGUCACGUCUCAAUCAACUCAAUCUCAGGAGUUUGCUCCUGCAUUCUCAACAGCUCGCAGUCAAG”, the binding signal (log2 fold change) is reported as 0.0833. “GGUCACGUCUCAAUCAACUCCCCAGAGGGGGGGAAAACCCCUUUGCCCUCACUAUCAACAGCUCGCAGUCAAG” gave a binding signal (log2 fold change) of -1.41e-05. “GGUCACGUCUCAAUCAACUCUUCUCCAGGAGUUUCCUCCUGCAAAUUCAACAGCUCGCAGUCAAG” gave a binding signal (log2 fold change) of -0.0732. “GGUCACGUCUCAAUCAACUCUUCGUCCAGGGAAAACCCUGGUAAAUUCAACAGCUCGCAGUCAAG” showed a binding signal (log2 fold change) of -0.134. Sequence “GGUCACGUCUCAAUCAACUCAUUUUCCAGGGAAACCCCUGGCUUAUUCAACAGCUCGCAGUCAAG” has a binding signal (log2 fold change) of -0.0481. “GGUCACGUCUCAAUCAACUCCCUCGAGGGGGGGAAAACCCCUUUACCCUCACAUUCAACAGCUCGCAGUCAAG” showed a binding signal (log2 fold change) of -0.22. “GGUCACGUCUCAAUCAACUCUUCUUCCAGGGAAAGCCCUGGUAAAUUCAACAGCUCGCAGUCAAG” showed a binding signal (log2 fold change) of -0.0184. “GGUCACGUCUCAAUCAACUCAACGCCAGGAGUUUCCUCCUGUUAUUUCAACAGCUCGCAGUCAAG” showed a binding signal (log2 fold change) of 0.0113. “GGUCACGUCUCAAUCAACUCAUUCUCCAGGGAAAACCCUGGUAAACUCAACAGCUCGCAGUCAAG” was tested, and the binding signal (log2 fold change) was -0.00388. “GGUCACGUCUCAAUCAACUCAUUCCCAGGAGUUUCCUCCUGUAUUUUCAACAGCUCGCAGUCAAG” was tested, and the binding signal (log2 fold change) was -0.089. In the case of “GGUCACGUCUCAAUCAACUCCCCAGAGGGGGGGAAAACCCCUUUGCCCUCCAUAUCAACAGCUCGCAGUCAAG”, the binding signal (log2 fold change) is reported as -0.0471. “GGUCACGUCUCAAUCAACUCUAUCCCCAGGGAAAACCCUGGCUUACUCAACAGCUCGCAGUCAAG” gave a binding signal (log2 fold change) of 0.16. In the case of “GGUCACGUCUCAAUCAACUCUUUUCCAGGAGUUUUCUCCUGUUAUCUCAACAGCUCGCAGUCAAG”, the binding signal (log2 fold change) is reported as 0.024. “GGUCACGUCUCAAUCAACUCCUAAGAGGGGGGGAAAACCCCUUUGCCCUCGAAUUCAACAGCUCGCAGUCAAG” showed a binding signal (log2 fold change) of 0.0882. With “GGUCACGUCUCAAUCAACUCCUAAGAGGGGGGGAAAACCCCUUUACCCUCAAAAUCAACAGCUCGCAGUCAAG” the binding signal (log2 fold change) was -0.628. “GGUCACGUCUCAAUCAACUCUACUCCCAGGGAAACCCCUGGCUAUUUCAACAGCUCGCAGUCAAG” gave a binding signal (log2 fold change) of 0.0213. With “GGUCACGUCUCAAUCAACUCUUCUUCCAGGGAAAGCCCUGGUUAAUUCAACAGCUCGCAGUCAAG” the binding signal (log2 fold change) was 0.0263. With “GGUCACGUCUCAAUCAACUCUUCUUCAGGAGUUUCCUCCUGUAAUGUCAACAGCUCGCAGUCAAG” the binding signal (log2 fold change) was 0.163. For “GGUCACGUCUCAAUCAACUCUCCAGAGGGGGGGAAAACCCCUUUACCCUCACAUUCAACAGCUCGCAGUCAAG”, the binding signal (log2 fold change) was 0.328. “GGUCACGUCUCAAUCAACUCUUUAGAGGGGGGGAAAACCCCUUUACCCUCAACAUCAACAGCUCGCAGUCAAG” was tested, and the binding signal (log2 fold change) was -0.49. For “GGUCACGUCUCAAUCAACUCAUUUUCAGGAGUUUCCUCCUGCAUUCUCAACAGCUCGCAGUCAAG”, the binding signal (log2 fold change) was 0.165. “GGUCACGUCUCAAUCAACUCUUUCUCCAGGGAAAUCCCUGGUUUUUUCAACAGCUCGCAGUCAAG” was tested, and the binding signal (log2 fold change) was -0.0354. “GGUCACGUCUCAAUCAACUCUACUUCCAGGGAAAGCCCUGGCAUUCUCAACAGCUCGCAGUCAAG” showed a binding signal (log2 fold change) of 0.122. Work on “GGUCACGUCUCAAUCAACUCUACUUCCAGGGAAACCCCUGGCAAUUUCAACAGCUCGCAGUCAAG” yielded a binding signal (log2 fold change) of 0.263. In the case of “GGUCACGUCUCAAUCAACUCUCUAGAGGGGGGGAAAACCCCUUUGCCCUCAUUUUCAACAGCUCGCAGUCAAG”, the binding signal (log2 fold change) is reported as 0.0988. Work on “GGUCACGUCUCAAUCAACUCUUCCCCAGGAGUUUACUCCUGCAUACUCAACAGCUCGCAGUCAAG” yielded a binding signal (log2 fold change) of -0.0381. “GGUCACGUCUCAAUCAACUCUAUUCCAGGAGUUUUCUCCUGUUAUUUCAACAGCUCGCAGUCAAG” gave a binding signal (log2 fold change) of -0.128. “GGUCACGUCUCAAUCAACUCCACGGAGGGGGGGAAAACCCCUUUACCCUCACAUUCAACAGCUCGCAGUCAAG” gave a binding signal (log2 fold change) of -0.41. “GGUCACGUCUCAAUCAACUCUAUCGAGGGGGGGAAAACCCCUUUACCCUCUCAUUCAACAGCUCGCAGUCAAG” gave a binding signal (log2 fold change) of 0.0063. “GGUCACGUCUCAAUCAACUCUAUCCCAGGAGUUUUCUCCUGUAAACUCAACAGCUCGCAGUCAAG” showed a binding signal (log2 fold change) of 0.0127. For “GGUCACGUCUCAAUCAACUCCUUAGAGGGGGGGAAAACCCCUUUGCCCUCACCGUCAACAGCUCGCAGUCAAG”, the binding signal (log2 fold change) was 0.412. For “GGUCACGUCUCAAUCAACUCAAACGAGGGGGGGAAAACCCCUUUACCCUCAUCCUCAACAGCUCGCAGUCAAG”, the binding signal (log2 fold change) was -0.0438.
